# In PubChem BioAssay AID760 (NMMLSC, 2007):
# Hit rate of the full screen: of about 190,000 compounds, about 360 (0.19%) were called active. The inconclusive results got no clear call from the source; some entries with a clear call stand among them for comparison.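 The calls were made as follows: active = GTP binding activity at least 20 points away from 100%, either lowered or raised; inconclusive = signal likely due to the compound's own green fluorescence; inactive = the rest.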
# Molecular target: Ras-related protein Rab-2A (Canis lupus familiaris) (UniProt P61105)
# Assay: Rab2 wt fluorescent GTP binding changes, either direction – biochemical, dog, bead-based flow cytometry, multiplex, primary screen (AID 760);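 also: 0% = beads with excess unlabeled GTP and 100% = no-compound control corrected for plate trend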
# Settings: GST-Rab2 wt beads, Bodipy-GTP binding, at 10 µM
row,Compound,GTP binding activity
1,CC1Cc2ccccc2N1C(=O)C1CCCN(S(=O)(=O)c2cccc3cccnc23)C1 (stereo not drawn),inactive: 102%
2,CN(NS(=O)(=O)c1ccc(Cl)cc1)c1nc(C(F)(F)F)nc2ccccc12,inconclusive: 96%
3,Cc1cc(C)cc(C(=O)NCC(=O)OC(C)C(=O)N(C)c2ccccc2)c1 (stereo not drawn),inactive: 101%
4,Cc1cc(C)nc(-n2nc(C)cc2NC(=O)c2cccc(S(=O)(=O)N3CCCCC3)c2)n1,inconclusive: 94%
5,CC(=O)Nc1cc2c(cc1NC(=O)Cn1nc(-c3ccccc3F)ccc1=O)OCCO2,inconclusive: 101%
6,O=C(Nc1cc(C(=O)N2CCCC2)ccc1N1CCCC1)c1ccccc1F,inconclusive: 108%
7,COc1ccccc1NC(=O)c1ccc(NC(=O)COC(=O)CCC2CCCC2)cc1,inconclusive: 95%
8,CCOC(=O)N1CCC(NC(=O)CS(=O)(=O)Cc2nc(-c3ccccc3C)oc2C)CC1,inconclusive: 104%
9,Brc1ccc(OCc2ccccc2)c(CNCc2ccncc2)c1,inconclusive: 93%
10,CCOC(=O)c1c(C)[nH]c(C)c1C(=O)COc1ncnc2cc([N+](=O)[O-])ccc12,active: 63%
11,CCCc1nc2c(=O)n(C)c(=O)nc-2n(C)n1,inactive: 89%
12,Cc1cc(Cl)ccc1OCCCC(=O)OCC(N)=O,inactive: 99%
13,NNC(=O)c1ccc(Cn2cc(Br)cn2)cc1,inconclusive: 104%
14,CN1CC(=O)N(CC(=O)Nc2cccc(S(=O)(=O)N3CCOCC3)c2)C1=O,inactive: 98%
15,Cc1nc(SCC(=O)O)c(C#N)c(C)c1CC(=O)c1ccccc1,inactive: 95%
16,CCc1nnc(NC(=O)Cc2ccc(Br)cc2)s1,inconclusive: 101%
17,COc1ccc(NC(=O)c2ccc(Cl)nc2)cc1S(=O)(=O)N1CCCCC1,inconclusive: 92%
18,O=C(c1ccc(S(=O)(=O)NCc2ccco2)cc1)N1CCN(Cc2ccccc2)CC1,inconclusive: 96%
19,Fc1cccc(F)c1-n1c(CN2CCOCC2)csc1=S,inconclusive: 95%
20,CC(Sc1nnc(NC2CCCCC2)s1)C(=O)Nc1ccc2c(c1)C(=O)c1ccccc1C2=O (stereo not drawn),active: 77%

row,Compound,GTP binding activity
1,CCCn1nc(C(=O)Nc2cccc(C(=O)OC)c2)c2ccccc2c1=O,inconclusive: 90%
2,CN(C(=O)COC(=O)CNC(=O)c1sc2ccccc2c1Cl)c1ccccc1,inactive: 92%
3,O=C(Nc1ccc2[nH]c(=O)[nH]c2c1)c1c(F)c(F)c(F)c(F)c1F,inactive: 94%
4,Cc1nnc(SCc2cc(=O)[nH]c(N3CCN(Cc4ccccc4)CC3)n2)s1,inconclusive: 101%
5,Cc1ccc2c(c1)c(-c1ccccc1)nc1nncn12,inconclusive: 93%
6,C=CCn1c(SCC(=O)N2CC(=O)Nc3ccccc32)nc2scc(-c3ccccc3)c2c1=O,inconclusive: 104%
7,COC(=O)c1cc(NC(=O)c2cccs2)ccc1N1CCOCC1,inconclusive: 95%
8,N#Cc1ccc(-c2ccc(OCC(=O)NCC(=O)Nc3ccc(F)c(F)c3F)cc2)cc1,inconclusive: 107%
9,COCCNc1nnnc2c1sc1nc(N3CCOCC3)c3c(c12)CCCC3,inactive: 83%
10,CC(C)(C)c1ccc2c(c1)C(=O)c1ccccc1C2=O,inconclusive: 93%
11,CCOc1ccc(/C=C2\SC(N3CCc4ccccc4C3)=NC2=O)cc1,inconclusive: 76%
12,COc1ccccc1CNC(=O)C(=O)NCC(c1ccco1)N1CCOCC1 (stereo not drawn),inconclusive: 126%
13,CCn1c(SC2CCOC2=O)nnc1-c1ccc(Cl)cc1 (stereo not drawn),inactive: 95%
14,COCCn1nnnc1CN(Cc1ccco1)Cc1cc2cc3c(cc2[nH]c1=O)OCO3,inconclusive: 106%
15,CCC(C(=O)Nc1ccccc1C(=O)N1CCOCC1)N1C(=O)c2ccccc2C1=O (stereo not drawn),inconclusive: 89%
16,CCn1c(SCc2ccc(C(=O)Nc3nccs3)cc2)nnc1-c1ccc(N)cc1,inconclusive: 92%
17,O=C(CN1C(=O)C(=O)N(Cc2ccco2)C1=O)NC1CCCCC1,inactive: 97%
18,COc1ccc(C(=O)N2CCCCC2)cc1S(=O)(=O)Nc1ccccc1,inconclusive: 96%
19,COc1ccc(OCC(=O)N2CCN(S(=O)(=O)c3ccccc3[N+](=O)[O-])CC2)cc1,inactive: 94%
20,CCCc1nc2oc3c(=O)[nH]cnc3c2c2c1CCCC2,inactive: 81%

row,Compound,GTP binding activity
1,Cc1cc(C)c(C(CC(=O)c2cccs2)C(C#N)C#N)c(C)c1 (stereo not drawn),inactive: 99%
2,CCC(C)c1ccc(NC(=O)C/C(C)=N/NC(=O)c2cnccn2)cc1 (stereo not drawn),inactive: 96%
3,Cc1c(NC(=O)c2ccc(Br)s2)c(=O)n(-c2ccccc2)n1C,inactive: 95%
4,O=C(Nc1cnn(Cc2c(Cl)cccc2Cl)c1)c1ccc([N+](=O)[O-])cc1,inconclusive: 94%
5,Cc1cc2[nH]c3c(c[n+](C)c4ccccc34)c2cc1C,inactive: 87%
6,OCC1(Cc2ccc(Cl)cc2)CCN(CCCc2ccccc2)CC1,inconclusive: 98%
7,N#Cc1cc(C#N)c(N2CCN(c3cccc(Cl)n3)CC2)nc1N,inconclusive: 82%
8,COc1ccc(N=c2oc3c(OC)cccc3cc2C(=O)NCc2ccco2)cc1OC,inconclusive: 96%
9,CCCCn1cnc2c(sc3nc4c(cc32)CSC(C)(C)C4)c1=O,inconclusive: 98%
10,CN(C)c1ccc(-c2nn3c(-c4ccc(Cl)cc4Cl)nnc3s2)cc1,inconclusive: 101%
11,COc1ccc(/C=N/NC(=O)c2cccc(O)c2)cc1Cn1nc(C)c([N+](=O)[O-])c1C,inconclusive: 88%
12,O=C(c1ccc(S(=O)(=O)c2ccccc2Cl)c([N+](=O)[O-])c1)N1CCCCCC1,inactive: 98%
13,COCc1nnc(NC(=O)CSc2ccc(C)cc2)s1,inconclusive: 108%
14,Cc1ccc(-n2[nH]c(C)c(C=Nc3ccc(S(=O)(=O)Nc4nccs4)cc3)c2=O)cc1C,inconclusive: 81%
15,N/C(CSc1nc(-c2ccccc2)c(-c2ccccc2)o1)=N\O,inconclusive: 86%
16,N#Cc1c(N)nc2c(c1-c1ccncc1)CCCC2,inconclusive: 109%
17,COc1cccc(/C=N/Nc2nn3cnnc3c3ccccc23)c1O,active: 60%
18,C#CC[N+]1(CC#Cc2ccc(C)cc2)CCCCC1,inactive: 102%
